In the supplement of paper PMC4166925:
± gives the standard deviation of the averaged measurements. In all, about 33,000 sequences were measured (“E-score (dimensionless, -0.5 to 0.5)”: median about -0.049, highest 2% from about 0.37 on). Some of the results follow.

These sequences were tested on T1, PmTbr T-box DNA-binding domain (GST fusion) (assay: PBM E-score of 8-mer (E-score (dimensionless, -0.5 to 0.5)); Tbr is Tbrain of the sea star Patiria miniata (Pm) or the sea urchin Strongylocentrotus purpuratus (Sp); higher = stronger binding preference; most listed sequences are background and not binding sites). Conditions: the construct has about 5 more residues each side.
T1 sequence: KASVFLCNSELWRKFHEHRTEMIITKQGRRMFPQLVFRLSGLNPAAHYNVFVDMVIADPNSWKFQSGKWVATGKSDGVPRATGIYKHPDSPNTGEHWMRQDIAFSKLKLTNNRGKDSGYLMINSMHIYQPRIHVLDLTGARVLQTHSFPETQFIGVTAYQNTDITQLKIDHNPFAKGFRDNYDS
Procedure, shortened: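 Using the Universal PBM Analysis Suite, every ungapped 8-mer received an enrichment E-score averaged over duplicate arrays. Probe intensities came from double-stranded Universal Agilent oligonucleotide arrays incubated with 200 nM GST-fused Tbr T-box DNA-binding domain in PBS (pH 7.5). That protein was expressed in BL21 E. coli at 20 °C and purified by glutathione affinity chromatography.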

Sequence	PBM E-score of 8-mer
GAAACCCA	-0.00855 ± 0.087
CTTAACAA	0.201 ± 0.041
AGTCCCGG	0.00453 ± 0.0029
ATCTGTTG	0.0136 ± 0.072
TGAGACCA	0.0461 ± 0.0096
CACGTTAA	0.11 ± 0.056
AGCTGCGG	-0.217 ± 0.013
GCGCTATA	0.098 ± 0.016
ACAGATCG	0.14 ± 0.035
CTGCACGC	-0.137 ± 0.069
AAGCCTAG	-0.334 ± 0.0092
GCTTATAA	-0.267 ± 0.046
ACCGCAGA	-0.332 ± 0.019
TCTCGAGA	-0.0629 ± 0.12
AGATCAAT	-0.126 ± 0.013
AGGTCTAT	-0.33 ± 0.011
CTATATGC	-0.00958 ± 0.015
CGACGCTA	0.0458 ± 0.006
GATCTAGC	-0.0665 ± 0.024
CCGATAAG	-0.0389 ± 0.043
AGCCGAGG	0.0772 ± 0.059
AATTTGAA	-0.207 ± 0.01
ACATGTTA	0.0442 ± 0.067
CTAGTATC	-0.0952 ± 0.011
AACATACT	-0.16 ± 0.059

Sequence	PBM E-score of 8-mer
CATAAGCA	0.0844 ± 0.044
TAACACCA	0.451 ± 0.0075
AGGTGTGC	0.44 ± 0.0051
ACATTATG	-0.0843 ± 0.037
AGCCTTAG	-0.287 ± 0.056
GATTGAAA	-0.189 ± 0.023
CCCGTGCA	-0.027 ± 0.095
CCTCAGAG	0.0428 ± 0.073
TACGCGCA	0.0284 ± 0.0022
ACGACAGT	0.118 ± 0.015
AATACTCA	-0.0996 ± 0.0042
GTCCCAGA	-0.298 ± 0.061
AGTCTGGC	-0.247 ± 0.019
CGAACATC	-0.0434 ± 0.053
CTCACGAC	0.115 ± 0.021
AAGGCTGG	-0.0845 ± 0.064
CCCAAAAG	-0.144 ± 0.081
AGTGGAGA	-0.21 ± 0.015
ATAGGGGG	-0.0469 ± 0.086
ATAGTGGC	0.12 ± 0.015
AAGGAACG	-0.138 ± 0.034
ATCATACG	-0.0663 ± 0.028
AGCCGCCG	-0.0524 ± 0.0007
ATACTGAA	-0.116 ± 0.013
AACACCTG	0.472 ± 0.0011

Sequence	PBM E-score of 8-mer
CATACTGG	-0.129 ± 0.076
GTTCTGTA	-0.0395 ± 0.03
ATACGAGC	-0.0466 ± 0.092
AGAACATA	0.0163 ± 0.016
ACTTCAGG	0.174 ± 0.048
CAACGCCA	0.0666 ± 0.048
TTCCCAAA	-0.216 ± 0.062
CATGCTGA	-0.062 ± 0.12
GCCCTATA	-0.193 ± 0.047
ATCCGGCC	-0.199 ± 0.013
CTTGACAC	0.43 ± 0.023
ACGTGCGC	0.0305 ± 0.051
TAAAAAGA	-0.101 ± 0.067
ACGACGAC	0.142 ± 0.049
ATGTGTAA	0.33 ± 0.043
CAGTGCGC	-0.0646 ± 0.032
GAACATCA	-0.0555 ± 0.02
GCTCGTCC	-0.364 ± 0.02
AGGCTATG	-0.404 ± 0.014
GAGTTAAC	0.155 ± 0.042
CCAGGCGC	0.226 ± 0.003
CGTGATTA	0.192 ± 0.047
CTGGAACC	-0.178 ± 0.014
AACCAGCT	0.109 ± 0.029
AGTCAGAT	-0.157 ± 0.071

Sequence	PBM E-score of 8-mer
CTTAACGC	0.215 ± 0.031
ACCCCAGG	-0.0633 ± 0.019
CGTTGACC	0.0227 ± 0.075
CCAATGGA	-0.188 ± 0.025
CAGCTGGC	0.0865 ± 0.00029
GAAGCATC	-0.0985 ± 0.021
AACTGTTC	-0.036 ± 0.022
ACGCGCAG	-0.0633 ± 0.036
GAAATCGC	0.281 ± 0.031
CCCCCTAG	-0.211 ± 0.016
GATACCCC	-0.3201 ± 0.0032
ACTCATCT	-0.112 ± 0.0092
CAATTCGG	-0.0579 ± 0.0054
CTGGAGAA	-0.077 ± 0.026
AATCCAGC	-0.0472 ± 0.0098
CCACACTA	0.248 ± 0.017
CCTATGTC	-0.0631 ± 0.04
AGCCCCAA	0.038 ± 0.089
CTGAATAC	-0.0727 ± 0.016
TCATGCAA	-0.15 ± 0.025
AAGTCGAT	0.091 ± 0.047
CAGAAAAG	0.108 ± 0.0083
AAATCTCC	-0.209 ± 0.014
CAGATAGG	0.0267 ± 0.037
AGCGATAC	0.0833 ± 0.021

Sequence	PBM E-score of 8-mer
AACTCACT	0.0854 ± 0.063
CGGCTAGC	0.119 ± 0.04
TCCCCGCA	-0.0149 ± 0.032
AGTCTTGG	-0.135 ± 0.073
CATTGGCA	0.167 ± 0.014
GGCCAAAC	-0.133 ± 0.011
CACATCGA	0.179 ± 0.075
AAGAACAT	-0.0827 ± 0.014
CAAAGTTG	0.113 ± 0.0087
GTCCGAGA	-0.113 ± 0.019
AAGGGGAT	0.0423 ± 0.043
ATATTCGC	0.186 ± 0.084
AATAGTCG	-0.0927 ± 0.035
GCGAGCCC	-0.131 ± 0.048
CGGTAACA	0.218 ± 0.028
CCTAGATA	-0.21 ± 0.035
GCCCGTGA	0.0152 ± 0.0011
AAGAGGCG	0.198 ± 0.011
AGAGCCAC	-0.0799 ± 0.014
AAGCACTT	0.0628 ± 0.008
CTGTAGGA	-0.135 ± 0.004
CGTGACCA	0.259 ± 0.018
GCCTAGCC	-0.0797 ± 0.0045
AGCTCATA	-0.0174 ± 0.0027
AGCATTGA	-0.229 ± 0.054

Sequence	PBM E-score of 8-mer
TTCGTAAA	-0.0367 ± 0.1
AGGGAGCA	0.0515 ± 0.038
ACACAACT	0.193 ± 0.037
AGTGCGCG	0.0675 ± 0.052
GTGATCAA	-0.00274 ± 0.14
ATGTTACC	-0.095 ± 0.036
CTAATGAG	-0.182 ± 0.13
CCGCACGA	-0.159 ± 0.021
ATAGCACG	0.358 ± 0.017
AAGGTATT	0.0819 ± 0.0091
CCCATGAC	-0.198 ± 0.031
CAATAGTC	-0.0141 ± 0.069
AAAACGTT	-0.2 ± 0.15
ACCGGATA	-0.173 ± 0.037
CCTCAAGC	-0.144 ± 0.04
GTGGACTA	-0.304 ± 0.075
GGCAGGCA	-0.2094 ± 0.00052
CAAATAAA	-0.148 ± 0.064
GTGCGGGA	0.0797 ± 0.032
ACGCGCCT	0.166 ± 0.015
AAGCGGTG	-0.194 ± 0.025
AACGGCTG	-0.0677 ± 0.049
AAATTGGC	0.114 ± 0.084
CCATACAC	-0.0531 ± 0.052
AAGCCACG	-0.088 ± 0.034

Sequence	PBM E-score of 8-mer
AGCGCGAG	0.319 ± 0.011
TAATCCGA	-0.115 ± 0.026
CTTAAAAG	-0.0997 ± 0.013
CGAGATAG	-0.0663 ± 0.037
ATTCGCAG	0.297 ± 0.024
ACAAGGAG	0.00398 ± 0.033
AAGTTAGA	-0.161 ± 0.01
ACAAGATG	-0.0867 ± 0.013
ACTATCTG	0.166 ± 0.011
AAGTGCAT	-0.0955 ± 0.069
CCCTCCAA	-0.0346 ± 0.0069
AGGCTCAT	-0.211 ± 0.075
ACCAGAAA	0.107 ± 0.028
TCGAAGAA	-0.287 ± 0.066
ACAGAAAT	-0.0955 ± 0.039
ACCTGTAA	0.139 ± 0.013
CCCAGTAA	-0.156 ± 0.067
GCGTTAAC	0.275 ± 0.056
CTTTATGC	-0.264 ± 0.027
ACATCGAG	-0.0166 ± 0.019
TTGTAAAA	-0.0584 ± 0.093
CGGGAGGC	0.131 ± 0.036
ATTGGATC	-0.119 ± 0.047
TGGTACAA	-0.0661 ± 0.01
ACTAATCC	-0.0993 ± 0.04

Sequence	PBM E-score of 8-mer
GCCTGCCC	-0.146 ± 0.055
TATTATGA	0.167 ± 0.06
CTGAGTTA	-0.167 ± 0.042
AACCGCGG	0.0351 ± 0.0077
AAGCGCCT	-0.133 ± 0.04
GAGGGCCC	-0.157 ± 0.12
CACTTTGA	0.3 ± 0.017
TAGGCATA	-0.104 ± 0.016
GCATTGGC	-0.126 ± 0.079
CGAATTTA	-0.0207 ± 0.021
GCAATGTA	-0.0933 ± 0.013
ACCCCTGC	0.00693 ± 0.082
AGCCAACA	0.0222 ± 0.082
AGAGCGAT	-0.0395 ± 0.054
ATCTCAGG	-0.0248 ± 0.056
AGGGTGGG	-0.0208 ± 0.038
ACGCGTGC	0.14 ± 0.034
ACCAAAGC	-0.0779 ± 0.099
ATGATTTG	-0.0586 ± 0.019
CATGTTAG	0.0379 ± 0.005
AGCCGGCA	0.0199 ± 0.059
GCACGTCA	0.299 ± 0.0076
CCTACAAC	0.148 ± 0.04
ATCACGTA	0.0652 ± 0.046
GCCACACC	0.394 ± 0.024

Sequence	PBM E-score of 8-mer
ATTTGTAG	-0.152 ± 0.021
TAGAGATA	-0.0296 ± 0.007
CCGACGTC	-0.158 ± 0.025
CTGGGCAC	-0.0642 ± 0.056
CATACTAA	-0.177 ± 0.061
CTATTCTC	-0.0482 ± 0.011
ACTGATAA	-0.125 ± 0.069
ACTCCTCT	0.071 ± 0.046
ATCTGTCC	-0.123 ± 0.029
CGGCTTAC	-0.117 ± 0.056
AAGGAAAT	-0.125 ± 0.081
CGCAGCAG	-0.127 ± 0.05
GTGCCGAA	0.256 ± 0.0053
AGGCAGGA	-0.184 ± 0.052
AGTTGTAC	-0.0597 ± 0.048
CGAGAGTC	-0.127 ± 0.043
AAGAACAG	-0.11 ± 0.011
CCATGGAG	-0.242 ± 0.027
CAAAGAAG	-0.127 ± 0.015
